# Measurements: patent US12152060B2, “Interleukin-2 variants and methods of uses thereof” (Cugene Inc, priority 2018, dated 2024)
# Test system: STAT5 phosphorylation in CD4+ Treg cells (CD4+/Foxp3+/CD25high)
# Assay: STAT5 phosphorylation in CD4+ Treg cells, human PBMC assay by FACS
# Type: cell-based
# Text: Single amino acid substitutions were introduced to IL-2 at positions corresponding to amino acids interacting with receptor subunit(s) β or γ or By. These substitutions were aimed to reduce IL-2 signaling capacity through the intermediate affinity IL-2Rβγ complex and confer signaling specificity from the high affinity IL-2Rαβγ. IL-2 variants containing single amino acid substitutions were examined for their ability to differentially stimulate STAT5 phosphorylation in CD4 positive Treg and Tconv cells. STAT5 is known to be involved in the downstream signaling cascade upon IL-2 binding to the transmembrane IL-2 receptors. The phosphorylation of STAT5 in defined lymphocyte subpopulations was measured using fresh human peripheral blood mononuclear cells (PBMC) and the forkhead transcription factor FOXP3 was used to identify the Treg population in FACS analysis.
# Briefly, human PBMC were isolated by Ficoll-Hypaque centrifugation from the buffy coat of a healthy donor. PBMC were starved in serum-free MACS buffer at 4° C. for 1 hour. 2×10^5 PBMC were then treated with serial dilutions of test compounds for 30 min at 37° C. […] Cells were collected by centrifugation, washed, resuspended in FACS buffer, and analyzed by flow cytometry. […] Data are expressed as a percent of pStat5 positive cells in gated population.
molecule,measurement,setting,value
"P-0419: Fc fusion protein of IL-2 variant L19Y/Q126E; SEQ ID NO: 103 (protein, Fc fusion; P-0419) [human IgG1 Fc with L234A L235A G237A (EU numbers) cut from this listing]GGGSGGGSAPTSSSTKKTQLQLEHLLYDLQMILNGINNYKNPKLTRMLTFKFYMPKKATELKHLQCLEEELKPLEEVLNLAQSKNFHLRPRDLISNINVIVLELKGSETTFMCEYADETATIVEFLNRWITFSESIISTLT",pSTAT5 activity profile compared with benchmark molecules (in words),Treg and CD4+ Tconv cells,very comparable to that of the Benchmark-1 molecule; also recorded: comparable activity profile to Benchmark-1
same,window for selective activation of Treg cells over CD4+ Tconv cells (in words),"pSTAT5, Treg versus Tconv",significantly widened

# “Also recorded” adds a separate entry of the source.
